Measurements reported in PMC4336329 (PLoS ONE, 2015).
Screen size: about 310,000 compounds; about 2,200 (0.71%) showed an effect of 50% or more. The effect is printed as a negative number. Some of the results follow.

Target: human ether-à-go-go-related gene (hERG) potassium channel (human, UniProt Q12809)
Assay: primary screen, population patch clamp on CHO cells stably expressing hERG

Sequence of human ether-à-go-go-related gene (hERG) potassium channel (Q12809 whole entry, looked up): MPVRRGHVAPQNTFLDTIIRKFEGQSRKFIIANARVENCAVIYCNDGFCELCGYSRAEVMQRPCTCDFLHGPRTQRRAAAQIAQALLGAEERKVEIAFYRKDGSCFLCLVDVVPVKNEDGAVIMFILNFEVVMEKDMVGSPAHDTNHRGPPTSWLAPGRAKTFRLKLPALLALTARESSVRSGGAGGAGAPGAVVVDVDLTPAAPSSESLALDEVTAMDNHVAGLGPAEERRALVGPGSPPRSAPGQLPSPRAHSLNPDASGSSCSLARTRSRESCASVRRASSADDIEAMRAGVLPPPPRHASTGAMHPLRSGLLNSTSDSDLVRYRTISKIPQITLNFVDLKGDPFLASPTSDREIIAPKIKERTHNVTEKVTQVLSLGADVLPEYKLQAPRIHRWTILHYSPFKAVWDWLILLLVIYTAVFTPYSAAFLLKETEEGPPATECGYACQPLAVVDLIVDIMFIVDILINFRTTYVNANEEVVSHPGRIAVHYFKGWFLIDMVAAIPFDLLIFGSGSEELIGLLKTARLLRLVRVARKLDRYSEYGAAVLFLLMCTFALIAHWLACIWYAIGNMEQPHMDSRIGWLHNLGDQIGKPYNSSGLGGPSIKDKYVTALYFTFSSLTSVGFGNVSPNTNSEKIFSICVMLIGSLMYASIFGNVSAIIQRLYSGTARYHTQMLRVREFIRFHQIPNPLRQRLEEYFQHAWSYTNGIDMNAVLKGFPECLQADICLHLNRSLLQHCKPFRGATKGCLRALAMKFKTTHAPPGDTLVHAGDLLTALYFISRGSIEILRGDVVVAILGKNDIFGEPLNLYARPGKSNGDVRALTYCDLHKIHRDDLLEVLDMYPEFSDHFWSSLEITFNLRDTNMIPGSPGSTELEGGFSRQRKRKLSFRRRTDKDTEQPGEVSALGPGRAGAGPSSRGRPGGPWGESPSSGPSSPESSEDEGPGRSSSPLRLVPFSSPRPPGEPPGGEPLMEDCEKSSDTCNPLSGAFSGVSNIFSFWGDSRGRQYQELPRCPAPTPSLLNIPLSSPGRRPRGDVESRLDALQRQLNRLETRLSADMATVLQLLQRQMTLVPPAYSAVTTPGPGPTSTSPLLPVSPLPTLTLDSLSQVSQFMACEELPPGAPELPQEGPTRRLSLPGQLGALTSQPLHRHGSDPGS

Compound	hERG current change (%, negative = inhibition) at 1uM [%]
COC(=O)CNC(=O)c1cccs1	12.5
CCn1c(C)cc(O)c(C(=O)Nc2cccc(Cl)c2)c1=O	15.4
CCOC(=O)N1CCC(N2Cc3cccc(C(=O)NCC4CCN(CC(C)C)C4)c3C2=O)CC1 (stereo not shown)	2.3
COc1ccccc1NC(=O)CSc1nc2ccccc2c(=O)n1C	6.28
CC(c1ccccc1)n1c(SCC(=O)N2CC(=O)Nc3ccccc32)nc2ccccc2c1=O (stereo not shown)	15.3
C/C(=N/NC(=O)CNC(=O)COc1cccc(C)c1)c1ccco1	9.72
O=C(O)CCC(=O)Nc1ccc(Sc2ccc([N+](=O)[O-])cc2)cc1	-7.42
CCCCCCC(=O)N1C/C=C\C(c2ccc(OC)cc2)N(Cc2ccc(F)cc2)C(=O)C1 (stereo not shown)	1.71
COc1ccc(Br)cc1CNC(=O)C1CCN(S(=O)(=O)N2CCC(C)CC2)CC1	-17.7
O=C(NCC1CCN(Cc2ccc(F)cc2)CC1)Nc1cc(F)ccc1F	-29.7
Cc1ccc(S(=O)(=O)CC(=O)Nc2nc3ccc(S(N)(=O)=O)cc3s2)cc1	13.2
Cc1cc[n+]2c3c(cccc13)CCC2.[Cl-]	14.6
O=C(COC(=O)/C=C/c1cccs1)Nc1nc(-c2cccc(Br)c2)cs1	8.52
COc1ccc(-c2oc3c(OC)c(OC)c(OC)c(O)c3c(=O)c2OC)cc1OC	8.33
CCOC(=O)Cc1csc(NC(=O)Nc2cccc(Cl)c2)n1	13.4
CC1CCN(CCc2nc3cc(NC(=O)COc4ccccc4)ccc3n2C)CC1	-33.9
N#Cc1cccc2cnccc12	7.07
c1ccc(Sc2nc(N3CCCCC3)nc(N3CCCCC3)n2)nc1	-2.33
O=C(Nc1ccc([N+](=O)[O-])cc1)c1cc2ccccc2nc1Cl	8.25
COc1ccc(C(C)NC(=O)c2ccncc2)cc1OC (stereo not shown)	2.07
CC(C)C[C@H](NC(=O)C1CCN(S(=O)(=O)c2ccccc2)CC1)C(=O)NCc1ccncc1	11.5

Compound	hERG current change (%, negative = inhibition) at 1uM [%]
COc1ccccc1CNC(=O)COC(=O)Cc1cccc(F)c1	3.85
CC(=O)Nc1ccc(NC(=O)CSc2nc3ccccc3o2)cc1	11.6
O=C(O)c1ccc(Br)cn1	7.76
COc1ccc(CC(=O)Nc2ccc(S(=O)(=O)Nc3ncccn3)cc2)cc1	12.8
COc1ccc(CC(=O)OCC(=O)Nc2ccc3c(c2)OCCO3)cc1OC	18.7
O=C(COC(=O)c1ccccc1NS(=O)(=O)c1cc([N+](=O)[O-])ccc1Cl)c1ccccc1	1.79
Cc1ccc(N2CC(C(=O)NCCCn3ccnc3)CC2=O)cc1 (stereo not shown)	4.23
CN1C(=O)NC(c2ccccc2[N+](=O)[O-])C2=C1CC(C)(C)CC2=O (stereo not shown)	17.7
COc1ccc(-c2nc(SCC(=O)Nc3nccs3)c(-c3ccc(Cl)cc3)[nH]2)cc1	13.1
CN(C)c1ccc(S(=O)(=O)NCC(=O)NCc2ccccc2)cc1[N+](=O)[O-]	7.92
CCCOc1ccc(C(=O)NNC(=S)NC(C)=O)cc1	4.6
O=C(CSc1cccc[n+]1[O-])Nc1cc([N+](=O)[O-])ccc1Cl	11.1
COC(=O)c1c(NC(=O)c2ccco2)sc2c1CCN(C(C)C)C2.Cl	-13.2
COC(=O)c1ccc(N2NC(=O)/C(=C/c3cc(OC)c(OC)c(OC)c3)C2=O)cc1	14.4
CN1CCN(CCNC(=O)c2cc3c(=O)n(C)c4ccccc4c3n2C)CC1	13.6
CS(=O)(=O)c1ccc(C(=O)NCCN2C(=O)S/C(=C\c3cccnc3)C2=O)cc1[N+](=O)[O-]	11.7
Cc1ccc(OCCC(=O)Nc2ccccc2C(=O)N2CCCCC2)cc1	-3.11
COc1ccc(N2CCN(C(=O)c3cc4c(s3)CCCCC4)CC2)cc1	2.23
O=[N+]([O-])c1ccc(-c2nc(NCC3CCCO3)c3ccccc3n2)cc1 (stereo not shown)	11.5
CCC(=O)Nc1nnc(S(=O)(=O)N(CC)c2ccc(Cl)cc2)s1	9.28
Cc1ccc(CN2CCN(C(=O)C3CCCO3)CC2)cc1 (stereo not shown)	4.12

Compound	hERG current change (%, negative = inhibition) at 1uM [%]
Clc1c(CSc2nc3ccccc3o2)nc2sccn12	7.65
O=C(NCCCN1CCOCC1)C(=O)NCc1ccccc1Cl	10.3
COc1ccc(CCNC(=O)c2ccc(OCC(=O)N3CCOCC3)c(OC)c2)cc1OC	6.23
O=C(Nc1ccc2c(c1)OCCO2)C1CCCN1S(=O)(=O)c1cccc2cccnc12 (stereo not shown)	11.8
COc1ccc(NC(=O)CCN2CCN(S(=O)(=O)c3ccc(Br)cc3)CC2)cc1	5.76
Cc1onc(-c2c(Cl)cccc2Cl)c1COC(=O)c1ccc(Cl)cc1	16.8
C#CCOCCOCCOCCNc1nc(N2CCN(C(=O)[C@H](C(C)C)n3cc(CCO)nn3)CC2)nc(N2CCN(C(=O)[C@H]([C@@H](C)CC)n3cc(CCCC[NH3+])nn3)CC2)n1.[Cl-]	15.9
CCCCN1C(=O)NC(=O)C2(Cc3c(nc4ccccn4c3=O)N3CCc4ccccc4C32)C1=O (stereo not shown)	-1.45
CCOc1ccc(C2/C(=C(\O)c3cccc(OC)c3)C(=O)C(=O)N2c2cc(C)on2)cc1OC (stereo not shown)	11.2
Cc1nc(S(=O)(=O)c2ccc(Cl)cc2)c(N(C)C)o1	15.5
CN([C@@H](C(=O)OC(C)(C)C)c1ccccc1)S(=O)(=O)c1cccc(S(=O)(=O)N(C)[C@@H](C(=O)OC(C)(C)C)c2ccccc2)c1	9.18
Cc1cc(C(=O)OCC(=O)Nc2cc(S(=O)(=O)N3CCOCC3)ccc2Cl)c(C)o1	7.83
Cc1ccc(CN2CCCC(C(=O)c3ccc4c(c3)OCO4)C2)cc1C (stereo not shown)	-27.1
Cc1ccc(CCNC(=O)c2ccc(NC3=NC4CS(=O)(=O)CC4S3)cc2)cc1 (stereo not shown)	7.77
COC(=O)[C@]1(C)CCC[C@@]2(C)C3CC[C@@]4(C)C[C@]3(CCC21)CC(=O)N4 (stereo partly shown)	8.02
Cc1ccc(-c2c(C(=O)N/N=C/C3CCCCC3)nnn2-c2nonc2N)cc1	14.1
O=C(Nc1cccc(-c2nn[nH]n2)c1)c1csc2c1CCCC2	11.5
CCOc1cccc(N2C(=O)CC(N(CCc3ccc(OC)c(OC)c3)C(=O)CC)C2=O)c1 (stereo not shown)	13.3
COCCN1C(=O)NC(=O)/C(=C\c2ccc(Br)cc2)C1=O	12.9
O=S(=O)(c1cccs1)n1cnc2ccccc21	10.8
COCCn1nnnc1C(c1cccs1)N1CCN(c2cc(C)ccc2C)CC1.Cl (stereo not shown)	10.2

Compound	hERG current change (%, negative = inhibition) at 1uM [%]
COc1ccc(S(=O)(=O)N(CC(=O)NCc2ccccn2)c2ccc(Cl)cc2)cc1	8.88
COc1cccc(/C(O)=C2/C(=O)C(=O)N(c3cc(C)on3)C2c2cccs2)c1 (stereo not shown)	10.1
Cc1ccc(C(NC(=O)C(C)C)c2cc([N+](=O)[O-])c3cccnc3c2O)cc1 (stereo not shown)	4.11
Cc1ccc(NC(=O)CSc2n[nH]c(-c3cccnc3)n2)c(Br)c1	14.2
CCN(Cc1ccccc1)c1ccc(/C=N/NS(=O)(=O)c2cccc([N+](=O)[O-])c2)cc1	5.72
Cc1ccc(COCCN2CCN(S(=O)(=O)c3ccccc3)CCC2=O)cc1	-1.77
Clc1ccc(Cn2c(-c3cccnc3Cl)nc3ccccc32)c(Cl)c1	0.318
O=C(CCCN1C(=O)c2ccccc2C1=O)N1CCOCC1	14.4
COC(=O)CCC(=O)Nc1ccc(S(=O)(=O)N2CCCCCC2)cc1	-11.4
COc1cc(/C=N/NC(=O)c2cc(-c3ccccc3OC(C)C)nc3ccccc23)ccc1O	6.54
FC(F)Oc1ccc(-n2cc(-c3ccc(Cl)cc3)[n+]3c2CCCCC3)cc1.[Br-]	-45.2
COc1ccc(C2/C(=C(/O)c3ccc4c(c3)CC(C)O4)C(=O)C(=O)N2CCN2CCOCC2)cc1 (stereo not shown)	5.07
COC(=O)c1ccsc1NC(=O)c1cccc(OC)c1	7.72
C=CCc1cc(C=C2C(=O)NC(=O)NC2=O)cc(OC)c1OCc1ccc(C(=O)O)cc1	14.7
CCCC(=O)Oc1ccc(C2NC(=O)c3ccccc3O2)cc1OC (stereo not shown)	13.7
O=C(CC1Oc2ccccc2NC1=O)NCc1ccc(Cl)cc1 (stereo not shown)	10.6
CC(C)Oc1ccc(C2C(C#N)=C(N)Oc3c2oc(CO)cc3=O)cc1 (stereo not shown)	9.22
C/C(=N/NC(=O)CN1CCN(S(=O)(=O)c2ccc(C)cc2)CC1)c1cccc(O)c1	1.38
O=C(NNC(=O)c1cc(Cl)ccc1O)c1ccc(NS(=O)(=O)c2cccs2)cc1	3.26
